The results in this text go back to patent US20230183319A1 (published 2023).

The target in assay [1] is T1, BMP10 (UniProt O95393 317-424).
T1 chain: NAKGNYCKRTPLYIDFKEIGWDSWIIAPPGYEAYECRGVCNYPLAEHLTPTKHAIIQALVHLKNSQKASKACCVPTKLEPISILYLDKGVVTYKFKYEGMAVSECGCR
Briefly: SPR; 37 C. A general note: Surface plasmon resonance follows binding to a sensor surface in real time, without labels.

The target of assay [2] is T2, BMP6 (UniProt P22004 382-513).
T2 chain: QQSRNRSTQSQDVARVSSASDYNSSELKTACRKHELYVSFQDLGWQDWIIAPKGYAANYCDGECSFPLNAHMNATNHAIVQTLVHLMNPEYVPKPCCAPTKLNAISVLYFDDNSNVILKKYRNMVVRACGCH
Put plainly: SPR; 37 C.

Assay [3] addresses T3, BMP9 (UniProt Q9UK05 320-429).
T3 chain: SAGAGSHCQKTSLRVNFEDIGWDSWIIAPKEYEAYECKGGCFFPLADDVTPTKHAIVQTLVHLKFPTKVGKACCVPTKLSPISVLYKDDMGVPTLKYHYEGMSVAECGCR
Put plainly: SPR; 37 C.

The target in assay [4] is T1, BMP10. Briefly: SPR; 37 C; transient binding.

B1: ActRIIB(F82S)-G1Fc (Fc fusion)
chain: GRGEAETRECIYYNANWELERTNQSGLERCEGEQDKRLHCYASWRNSSGTIELVKKGCWLDDSNCYDRQECVATEENPQVYFCCCEGNFCNERFTHLPEAGGPEVTYEPPPTAPTG[human IgG1 Fc and a few adjoining residues not shown]
Usually Kd stands for the equilibrium constant for the complex coming apart. As for B1, the Kd in assay [1] worked out at 0.0116 nM; in assay [2] it was 0.518 nM; in assay [3], 0.463 nM.

B2: ActRIIB(L57R, F82D)-G1Fc (Fc fusion)
chain: GRGEAETRECIYYNANWELERTNQSGLERCEGEQDKRRHCYASWRNSSGTIELVKKGCWLDDDNCYDRQECVATEENPQVYFCCCEGNFCNERFTHLPEAGGPEVTYEPPPTAPTG[human IgG1 Fc and a few adjoining residues not shown]
B2: the Kd in assay [2] amounted to 2.55 nM; in assay [3], 1.1 nM; in assay [4], 1.41 nM.

B3: ActRIIB(L79F, F82D)-G1Fc (Fc fusion)
chain: GRGEAETRECIYYNANWELERTNQSGLERCEGEQDKRLHCYASWRNSSGTIELVKKGCWFDDDNCYDRQECVATEENPQVYFCCCEGNFCNERFTHLPEAGGPEVTYEPPPTAPTG[human IgG1 Fc and a few adjoining residues not shown]
On to B3, for which the Kd in assay [1] is 0.0207 nM; in assay [2], 0.106 nM; in assay [3] it was 0.118 nM.

B4: ActRIIB(F82L)-G1Fc (Fc fusion)
chain: GRGEAETRECIYYNANWELERTNQSGLERCEGEQDKRLHCYASWRNSSGTIELVKKGCWLDDLNCYDRQECVATEENPQVYFCCCEGNFCNERFTHLPEAGGPEVTYEPPPTAPTG[human IgG1 Fc and a few adjoining residues not shown]
In the case of B4, the results for the Kd in assay [1], in assay [2] and in assay [3] were 0.0135 nM, 0.332 nM and 0.446 nM, respectively.

B5: ActRIIB(L57R, F82E, N83R)-G1Fc (Fc fusion)
chain: GRGEAETRECIYYNANWELERTNQSGLERCEGEQDKRRHCYASWRNSSGTIELVKKGCWLDDERCYDRQECVATEENPQVYFCCCEGNFCNERFTHLPEAGGPEVTYEPPPTAPTG[human IgG1 Fc and a few adjoining residues not shown]
Turning to B5, the Kd in assay [2] was 23 nM; in assay [4] it was 13.9 nM.

B6: ActRIIB(L57I, F82E, N83R)-G1Fc (Fc fusion)
chain: GRGEAETRECIYYNANWELERTNQSGLERCEGEQDKRIHCYASWRNSSGTIELVKKGCWLDDERCYDRQECVATEENPQVYFCCCEGNFCNERFTHLPEAGGPEVTYEPPPTAPTG[human IgG1 Fc and a few adjoining residues not shown]
For B6, the Kd in assay [1] amounted to 0.169 nM; in assay [2], 2.88 nM.

B7: ActRIIB(E52N, F82I, N83R)-G1Fc (Fc fusion)
chain: GRGEAETRECIYYNANWELERTNQSGLERCEGNQDKRLHCYASWRNSSGTIELVKKGCWLDDIRCYDRQECVATEENPQVYFCCCEGNFCNERFTHLPEAGGPEVTYEPPPTAPTG[human IgG1 Fc and a few adjoining residues not shown]
As for B7, the Kd in assay [1] was found to be 0.0585 nM.

B8: ActRIIB(E52D, F82T)-G1Fc (Fc fusion)
chain: GRGEAETRECIYYNANWELERTNQSGLERCEGDQDKRLHCYASWRNSSGTIELVKKGCWLDDTNCYDRQECVATEENPQVYFCCCEGNFCNERFTHLPEAGGPEVTYEPPPTAPTG[human IgG1 Fc and a few adjoining residues not shown]
B8: the results for the dissociation constant Kd in assay [1], in assay [2] and in assay [3] were 0.016 nM, 0.635 nM and 0.658 nM, respectively.

B9: ActRIIB(L57R, F82S)-G1Fc (Fc fusion)
chain: GRGEAETRECIYYNANWELERTNQSGLERCEGEQDKRRHCYASWRNSSGTIELVKKGCWLDDSNCYDRQECVATEENPQVYFCCCEGNFCNERFTHLPEAGGPEVTYEPPPTAPTG[human IgG1 Fc and a few adjoining residues not shown]
Regarding B9, the Kd in assay [1] was found to be 0.0765 nM; in assay [2], 1.29 nM; in assay [3], 1.18 nM.

B10: ActRIIB(E52Y, F82D, N83R)-G1Fc (Fc fusion)
chain: GRGEAETRECIYYNANWELERTNQSGLERCEGYQDKRLHCYASWRNSSGTIELVKKGCWLDDDRCYDRQECVATEENPQVYFCCCEGNFCNERFTHLPEAGGPEVTYEPPPTAPTG[human IgG1 Fc and a few adjoining residues not shown]
On to B10, for which the dissociation constant (Kd) in assay [1] came to 0.031 nM; in assay [3] it was 1.09 nM.

B11: ActRIIB(E52D, F82D, N83R)-G1Fc (Fc fusion)
chain: GRGEAETRECIYYNANWELERTNQSGLERCEGDQDKRLHCYASWRNSSGTIELVKKGCWLDDDRCYDRQECVATEENPQVYFCCCEGNFCNERFTHLPEAGGPEVTYEPPPTAPTG[human IgG1 Fc and a few adjoining residues not shown]
On to B11, for which the Kd in assay [1] came to 0.354 nM; in assay [2], 5.15 nM.

B12: ActRIIB(L57I, F82D, N83R)-G1Fc (Fc fusion)
chain: GRGEAETRECIYYNANWELERTNQSGLERCEGEQDKRIHCYASWRNSSGTIELVKKGCWLDDDRCYDRQECVATEENPQVYFCCCEGNFCNERFTHLPEAGGPEVTYEPPPTAPTG[human IgG1 Fc and a few adjoining residues not shown]
For the molecule B12, the Kd in assay [1] turned out to be 0.576 nM; in assay [2], 10.9 nM.

B13: ActRIIB(L57V, F82Y, N83R)-G1Fc (Fc fusion)
chain: GRGEAETRECIYYNANWELERTNQSGLERCEGEQDKRVHCYASWRNSSGTIELVKKGCWLDDYRCYDRQECVATEENPQVYFCCCEGNFCNERFTHLPEAGGPEVTYEPPPTAPTG[human IgG1 Fc and a few adjoining residues not shown]
For B13, the Kd in assay [1] turned out to be 0.213 nM; in assay [2], 16 nM.

B14: ActRIIB(E52D, F82T, N83R)-G1Fc (Fc fusion)
chain: GRGEAETRECIYYNANWELERTNQSGLERCEGDQDKRLHCYASWRNSSGTIELVKKGCWLDDTRCYDRQECVATEENPQVYFCCCEGNFCNERFTHLPEAGGPEVTYEPPPTAPTG[human IgG1 Fc and a few adjoining residues not shown]
B14: the Kd stood at 0.0561 nM in assay [1] and 2.5 nM in assay [2].

B15: ActRIIB(F82I, E94K)-G1Fc (Fc fusion)
chain: GRGEAETRECIYYNANWELERTNQSGLERCEGEQDKRLHCYASWRNSSGTIELVKKGCWLDDINCYDRQECVATKENPQVYFCCCEGNFCNERFTHLPEAGGPEVTYEPPPTAPTG[human IgG1 Fc and a few adjoining residues not shown]
Regarding B15, the Kd in assay [1] came to 0.0219 nM; in assay [2], 2.06 nM; in assay [3], 0.961 nM.

B16: ActRIIB(L57V, F82D, N83R)-G1Fc (Fc fusion)
chain: GRGEAETRECIYYNANWELERTNQSGLERCEGEQDKRVHCYASWRNSSGTIELVKKGCWLDDDRCYDRQECVATEENPQVYFCCCEGNFCNERFTHLPEAGGPEVTYEPPPTAPTG[human IgG1 Fc and a few adjoining residues not shown]
Turning to B16, the Kd in assay [2] was 5.04 nM; in assay [4] it was 2.47 nM.

B17: ActRIIB(L79S)-G1Fc (Fc fusion)
chain: GRGEAETRECIYYNANWELERTNQSGLERCEGEQDKRLHCYASWRNSSGTIELVKKGCWSDDFNCYDRQECVATEENPQVYFCCCEGNFCNERFTHLPEAGGPEVTYEPPPTAPTG[human IgG1 Fc and a few adjoining residues not shown]
With B17, the Kd in assay [1] is 0.153 nM; in assay [2], 1.25 nM; in assay [3], 0.42 nM.

B18: ActRIIB(L79W)-G1Fc (Fc fusion)
chain: GRGEAETRECIYYNANWELERTNQSGLERCEGEQDKRLHCYASWRNSSGTIELVKKGCWWDDFNCYDRQECVATEENPQVYFCCCEGNFCNERFTHLPEAGGPEVTYEPPPTAPTG[human IgG1 Fc and a few adjoining residues not shown]
For B18, the Kd in assay [1] is 0.00875 nM; in assay [2], 0.0338 nM; in assay [3], 0.102 nM.
